This passage reports inhibition results from PubChem BioAssay AID493035 (The Scripps Research Institute Molecular Screening Center, 2011).

Values joined by “and” are separate entries in the source; they are usually repeats but may differ in a detail not shown here. Equal entries are not always repeated. The whole screen tested about 2,000 compounds, of which about 45 (2%) were called active.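 Rule for the calls: active = inhibition above the mean of all tested compounds plus 3 SD (cut at about 49% in these data); inactive = the rest.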 Some of the results follow. Where a SMILES comes first, the peptide text is derived from it. The star is where a group is joined. Boc = CC(C)(C)OC(=O)*; OBn = c1ccc(CO*)cc1

In this assay the target is Perilipin-5 (Homo sapiens) + 1-acylglycerol-3-phosphate O-acyltransferase ABHD5 (Homo sapiens) (UniProt Q00G26+Q8WTS1). Kind of assay: blockers of ABHD5 binding to perilipin-5 – cell lysate, split luciferase complementation, luminescence, NIH validation set, pilot screen (AID 493035).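 For inhibition: 0% = DMSO only wells while the 100% control is not stated.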 The conditions noted are these: split G. princeps luciferase complementation, lysates, 4 h; at 7.9 µM, stronger effect = higher value.
Sequence of UniProt Q00G26 (Q00G26 whole entry, looked up): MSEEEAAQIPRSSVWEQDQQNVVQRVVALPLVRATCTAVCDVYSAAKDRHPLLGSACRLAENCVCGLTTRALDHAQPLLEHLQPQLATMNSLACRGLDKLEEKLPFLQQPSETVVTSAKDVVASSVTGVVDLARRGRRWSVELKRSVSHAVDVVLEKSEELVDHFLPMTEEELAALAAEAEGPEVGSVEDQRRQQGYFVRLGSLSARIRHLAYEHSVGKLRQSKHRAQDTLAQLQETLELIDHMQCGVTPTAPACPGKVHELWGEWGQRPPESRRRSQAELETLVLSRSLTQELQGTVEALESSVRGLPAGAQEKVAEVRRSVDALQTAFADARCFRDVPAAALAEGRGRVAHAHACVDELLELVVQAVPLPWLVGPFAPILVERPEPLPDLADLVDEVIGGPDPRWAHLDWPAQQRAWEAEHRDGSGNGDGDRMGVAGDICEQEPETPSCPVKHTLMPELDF
Sequence of UniProt Q00G26 (Q8WTS1 whole entry, looked up): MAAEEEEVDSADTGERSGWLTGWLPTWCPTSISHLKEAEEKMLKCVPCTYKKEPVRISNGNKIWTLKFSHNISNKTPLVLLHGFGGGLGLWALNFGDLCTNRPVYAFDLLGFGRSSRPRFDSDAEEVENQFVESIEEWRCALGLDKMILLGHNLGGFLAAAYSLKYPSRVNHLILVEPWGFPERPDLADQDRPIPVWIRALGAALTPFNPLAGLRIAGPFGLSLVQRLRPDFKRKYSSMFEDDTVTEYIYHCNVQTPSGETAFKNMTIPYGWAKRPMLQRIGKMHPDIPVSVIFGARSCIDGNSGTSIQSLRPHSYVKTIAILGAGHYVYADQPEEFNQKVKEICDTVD
Take `COc1ccc(-c2c3c(=O)n(C)c(=O)n(C)c3cn2C2CCCCC2)cc1`: the inhibition (commonly the change of the read-out against control, counted positive when it falls) is inactive: 7.04%. `COc1cccc2cc(-c3ccccc3)c(=O)oc12`: the inhibition was inactive: -4.71%.

Take `COc1cc2nc(N3CCN(C(=O)C4CCCO4)CC3)nc(N)c2cc1OC` (centres undefined): the inhibition was inactive: 4.62% and inactive: -16.8%. With `C[C@H]1C[C@H]2[C@@H]3CCC4=CC(=O)C=C[C@]4(C)[C@@]3(Cl)[C@@H](O)C[C@]2(C)[C@@]1(O)C(=O)CO` the figure was inactive: -0.24%. With `CC(C)OC(=O)CC12CN3CN(C1)CC(CC(=O)OC(C)C)(C3)C2=O`, the inhibition is inactive: -5.66%. Then `CC1(C)CC(C(CC(=O)O)c2ccccc2)CCO1` (centres undefined), with inactive: -4.33%; and `Cc1ccc(P(=O)(CSC(=N)N)c2ccc(C)cc2)cc1`, with inactive: 24.2%; and `COc1ccc(O)c(C(=O)/C=C/c2cc3ccccc3o2)c1`, with active: 73.2%.

With `CCCCC[C@H](O)/C=C/[C@@H]1[C@@H](C/C=C\CCCC(=O)O)[C@H]2CO[C@@H]1C2`, the inhibition is inactive: -6.81%. Then `CCc1cc2c3c(c(=O)oc2cc1O)CCCC3`, with inactive: -1.19%. Then `O=c1[nH]cc(F)c(=O)[nH]1`, with inactive: -12.1%; and `CCNC(=S)N1CCN(CCN2C(=O)c3cccc4cccc(c34)C2=O)CC1`, with inactive: 7.9%; and `CC(=O)c1cccc(NC(=O)N[C@@H](CC(C)C)C(=O)O)c1`, with inactive: 1.9%. In the case of `CC1(C(=O)O)CCC(C(=O)NC2CCCCCC2)C1(C)C` (centres undefined), the inhibition is inactive: -0.73%. Then `CS(=O)(=O)Oc1ccc2c(c1)O/C(=C\C=C\c1ccccc1)C2=O`, with active: 53.5%; and `Nc1ncnc2c1ncn2C1OC(CO)C(O)C1O` (centres undefined), with inactive: -4.63%. With `CC1(C)OC2OC(C(=O)N/N=C/c3ccccc3F)C3OC(C)(C)OC3C2O1` (centres undefined) the figure was inactive: -4.6%; with `O=C(c1ccc([N+](=O)[O-])cc1)N1CCSC1c1ccccc1Cl` (centres undefined), inactive: -4.89%; with `O=C(O)Cc1ccc(O)c(F)c1`, inactive: -5.48%. With `CC(C)CC(=O)NC(NC(=O)CC(C)C)c1cccc([N+](=O)[O-])c1` the figure was inactive: -8.94%; with `O=C1CC(c2ccc(OCCCCCOc3ccc(C4CC(=O)NC4=O)cc3)cc2)C(=O)N1` (centres undefined), inactive: 8.4%. Take `COC(=O)C1=C(C)NC(C)=C(C(=O)OC)C1c1ccccc1[N+](=O)[O-]`: the inhibition entry is “active”.

For `N/C(=N/OS(=O)(=O)c1ccc([N+](=O)[O-])cc1)c1ccncc1`, the inhibition is inactive: -6.02%.

As to `COc1cc2c(cc1O)CC[C@@H]1[C@@H]2CC[C@]2(C)[C@@H](O)CC[C@@H]12`, the inhibition was inactive: -4.16%. Consider `NS(=O)(=O)c1ccc(CCNC(=O)C2CCCN2C(=O)OCc2ccccc2)cc1` (centres undefined), for which the inhibition was inactive: -14%. Consider `C=CCNc1nc2c(c(=O)n(C)c(=O)n2C)n1CC(=C)C`, for which the inhibition was inactive: 12.9%. Then `Clc1ccccc1CN1CCc2sccc2C1`, with inactive: -3.14%; and `O=C(/C=C/c1ccccc1)NC(=O)c1ccccc1O`, with inactive: 12.7%. As to `CN(C)CCCN1c2ccccc2CCc2ccc(Cl)cc21`, the inhibition is inactive: -21.8%. On to `COc1ccc2nc(C)cc(Nc3ccccc3O)c2c1`, for which the inhibition is inactive: -5.57%. As for `CCOCC(=O)Nc1ccccc1C(=O)N1CCOCC1`, the inhibition is inactive: 7.04%.

As to `O=C(O)/C=C/c1cccc(OCc2ccccc2)c1`, the inhibition is inactive: -15.3%. In the case of `O=C(c1ccc(F)cc1)[C@@H]1[C@@H](C(=O)c2ccccc2)[C@@]2(C(=O)Nc3ccccc32)[C@H]2c3ccccc3C=CN12`, the inhibition was inactive: 15.4%. For the molecule `C#C[C@]1(O)CC[C@H]2[C@@H]3CCc4cc(OC)ccc4[C@H]3CC[C@@]21C`, the inhibition is inactive: -8.39%. On to `CC1=C(C)C(=O)C(CCCCC#CCCCC#CCO)=C(C)C1=O`, for which the inhibition was inactive: 14.6%. Then `c1coc(-c2nnc3n2C2(CCCC2)Cc2ccccc2-3)c1`, with inactive: -2.54%; and `O=C(/C=C/c1ccco1)Nc1ccccc1C(=O)O`, with inactive: 2.66%.

As to `CCCCCCC(=O)N(O)C1CC(=O)N(Cc2ccccc2)C1=O` (centres undefined), the inhibition was inactive: 8.08%.

On to `O=C(CN1C(=O)c2ccccc2S1(=O)=O)Nc1ccccc1`, for which the inhibition was inactive: -7.21%.

Regarding `COc1cc2c(cc1OC)-c1nnc(C)n1C(C)(C)C2`, the inhibition was inactive: -1.09%. With `COc1cc(OC)c2c(C)c(Cl)c(=O)oc2c1` the figure was inactive: -6.84%; with `COc1ccc(NC(=O)CC(c2ccccc2)c2ccco2)cc1` (centres undefined), inactive: 19%; with `CC[C@H]1CN2CCc3cc(OC)c(OC)cc3[C@@H]2C[C@@H]1C[C@H]1NCCc2cc(OC)c(OC)cc21`, inactive: -1.41%. Then `CCOc1ccc2oc(-c3ccccc3)c(C(=O)O)c2c1`, with inactive: -9.54%; and `CCN(CC)CCNC(=O)c1ccc(NC(C)=O)cc1`, with inactive: 2.59% and inactive: 3.56%; and `COc1ccc(CCNC(=O)C(=O)Nc2ccc3c(c2)OCO3)cc1OC`, with inactive: -7.87%.

On to `CNC[C@H](O)c1cccc(O)c1`, for which the inhibition is inactive: 7.25%. Take `COc1ccc2[nH]c(CN3CCN(CC(C)C)C(CCO)C3)c(C)c2c1` (centres undefined): the inhibition is inactive: -11.5%. As to `Cn1c2ccccc2c2cc(/C=C(\NC(=O)c3ccccc3)C(=O)O)ccc21`, the inhibition is inactive: -7.5%. Then `O=C(O)CCn1c(=S)n(CCC(=O)O)c2ccccc21`, with inactive: 8.91%; and `CC1(CC(=O)Nc2ccccc2)NC(=S)N(c2ccccc2)N1` (centres undefined), with inactive: 1.46%; and `CCOC(=O)Nc1ccc2c(c1)N(C(=O)CCN1CCOCC1)c1ccccc1S2`, with inactive: 0.93%.

Take `CCOC(=O)c1cnc2ccccc2c1NCCO`: the inhibition is inactive: -3.57%. With `CN=C(NC#N)NCCSCc1nc[nH]c1C` the figure was inactive: -10.8%; with `CCC(C)NCCOCCOc1ccc(Cl)c2ccccc12` (centres undefined), inactive: -12.6%; with `COc1ccc(-c2csc(-c3cccnc3)n2)cc1C`, inactive: -0.19%.

On to `COc1ccc(C2(CCN=Cc3ccc(N(C)C)cc3)CCOC(C)(C)C2)cc1` (centres undefined), for which the inhibition is inactive: -10.9%. Then `COc1ccc(Br)cc1C(=O)Nc1ccc(C(=O)O)cc1`, with inactive: 0.9%; and `COc1cc([C@@H]2c3cc4c(cc3[C@H](O)[C@H]3COC(=O)[C@H]23)OCO4)cc(OC)c1OC`, with inactive: -2.88%; and `CC(C)CC(NC(=O)C(NC(=O)OC(C)(C)C)C(C)C)C(=O)NC(CCC(=O)OCc1ccccc1)C(N)=O` (stereo not drawn) (Boc-Val-Leu-Glu(OBn)-NH2; configuration not given here), with inactive: -6.05%. As to `COc1ccc(C(=O)Nc2ccccc2C(=O)NCCCn2ccnc2)cc1`, the inhibition is inactive: -6.29%.

Turning to `O=C(CC1SC(=O)NC1=O)Nc1ccc(Cl)cc1` (centres undefined), the inhibition is inactive: -6.54%.

Regarding `COC(=O)c1ccccc1NC(=O)NCc1ccccc1`, the inhibition is inactive: -4.99%. Take `O=C(NCCc1ccccc1)C1CCN(C2CCN(Cc3ccco3)CC2)CC1`: the inhibition was inactive: 4.49%.

`c1ccc2c(c1)CCCC2C1=NCCN1` (centres undefined): the inhibition is inactive: -0.4%. As for `CCCCN1C[C@H](O)[C@@H](O)[C@H](O)[C@H]1CO`, the inhibition is inactive: -11.3%. With `C[C@]12CC[C@@H]3c4ccc(O)cc4[C@@H](O)C[C@H]3[C@@H]1CC[C@@H]2O` the figure was inactive: 3.05%. With `CCC(C)NCCOc1ccc(C(C)(C)c2ccccc2)cc1` (centres undefined) the figure was inactive: -20.1%; with `Nc1ccc(S(=O)(=O)NC(=O)c2ccccc2)cc1`, inactive: -1.95%. As to `C[N+](C)(C)CCOP(=O)(O)OP(=O)([O-])OC[C@H]1O[C@@H](n2ccc(N)nc2=O)[C@H](O)[C@@H]1O`, the inhibition was inactive: 6.72%. Then `Clc1ccc(CCNc2ncnc3nc[nH]c23)cc1`, with inactive: -0.06%; and `CCOC(=O)c1cc2cc3ccccc3cc2[nH]1`, with inactive: 3.97%; and `CC(C)(CO)CNC(=O)CC1C(=O)NCCN1CC(c1ccccc1)c1ccccc1` (centres undefined), with inactive: 2.61%. Then `COc1ccc(CNC(=O)C2CCN(C(=O)[C@@H](CC(C)C)NC(=O)OC(C)(C)C)CC2)cc1`, with inactive: -5.28%. With `COc1ccc(CN(CCC(c2ccc(F)cc2)C2CCOC(C)(C)C2)C(=O)c2ccco2)cc1` (centres undefined) the figure was inactive: 33.5%; with `CCOc1ccc(C(=O)C(C)=O)c(OCC)c1`, inactive: 3.44%. Regarding `COc1ccc(CCCC(=O)O)c(C)c1`, the inhibition was inactive: -3.24%.

For `COCC1CCCN(Cc2cn[nH]c2-c2cc3ccccc3o2)C1` (centres undefined), the inhibition was inactive: -4.29%.

For `CCOc1cc(C=O)ccc1OCCSc1ccc(C)cc1`, the inhibition was inactive: -8.71%. Then `O=C1OC(c2ccc(O)cc2)(c2ccc(O)cc2)c2ccccc21`, with inactive: 6.4%; and `C/C=C/Cn1c(SC)nc2c1c(=O)[nH]c(=O)n2C`, with inactive: -3.19%; and `CC(C)C(=O)Nc1cccnc1`, with inactive: 0.81%. With `COc1ccc(C=NCC2COc3ccccc3O2)cc1OC` (centres undefined) the figure was inactive: 11.6%; with `CN(C)c1ccc(O)c2c1CC1CC3[C@@H](N(C)C)C(=O)C(C(N)=O)=C(O)[C@]3(O)C(=O)C1=C2O` (some centres undefined), inactive: 3.04%; with `O=C(O)C1Cc2ccccc2CN1S(=O)(=O)c1ccccc1` (centres undefined), inactive: 3.15%. Take `CC(=O)OCC(=O)[C@H]1CC[C@H]2[C@@H]3CC=C4C[C@@H](O)CC[C@]4(C)[C@H]3CC[C@]12C`: the inhibition is inactive: -6.44%. On to `O=C(NC1CCCCC1)N1CCc2[nH]c3ccccc3c2C1`, for which the inhibition was inactive: 3.3%.

For `CCOC(=O)C(=O)N1CCN(c2ccccc2OC)CC1`, the inhibition was inactive: -5.55%.

As to `CC(C)(Oc1ccc(CCNC(=O)c2ccc(Cl)cc2)cc1)C(=O)O`, the inhibition is inactive: -2.51%. Consider `OCCN1CCN(CCCN2c3ccccc3Sc3ccc(C(F)(F)F)cc32)CC1`, for which the inhibition is inactive: 0.19%. With `c1ccc(CC2=NCCN2)cc1` the figure was inactive: 0.09%. With `O=C(Nc1ccc(C(=O)NC2CCCCC2)cc1)c1cccnc1` the figure was inactive: -10.4%; with `CCc1cc(=O)oc2cc(OCC=C(C)C)ccc12`, inactive: -4.44%; with `Clc1ccc2c(c1)C(N1CCNCC1)=Nc1ccccc1O2`, inactive: -6.4%.
